Assay results from PubChem BioAssay AID686978 (National Center for Advancing Translational Sciences (NCATS), 2013).
Out of some 420,000 compounds screened, about 64,000 (15%) were called active. This list was built around the results that the source calls inconclusive (neither active nor inactive); the mix of calls is not that of the screen. Calls follow the shape of the dose curve; as a rule, active = well fitted inhibition curve with a large enough effect; inconclusive = small, poorly fitted or top-dose-only effect; inactive = flat fitted curve, though single readings scatter. Potencies of inconclusive entries are left out as doubtful fits.

Assay: qHTS for Inhibitors of human tyrosyl-DNA phosphodiesterase 1 (TDP1): qHTS in cells in absence of CPT; also: nearly all actives have a fitted effect of over 55% in size
Settings: DT40 Tdp1-/- hTDP1 cells, no CPT, ATP luminescence, 48 h; activity change, negative = growth inhibition: at 46.2 µM (top of the series) unless noted
In short: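 A cellular qHTS used chicken DT40 cells lacking endogenous Tdp1 but carrying stably transfected human TDP1. Compounds were applied without camptothecin, and cell growth kinetics were judged by ATP-dependent luminescence after ≥48 hr.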
% is scaled to controls: 0 for no effect and ±100 for the full control effect; potency is read from the fitted curve at half-maximal effect; tags tell the direction and shape of the fitted curve.

Compound | Potency | activity change, negative = growth inhibition
CCOc1ccccc1NC(=O)C1CCN(S(=O)(=O)c2cccc3nonc23)CC1 | inconclusive [inhibitor, full curve, poor fit] | 
CNS(=O)(=O)c1ccc(CNC[C@H]2O[C@@H](n3ccc(N)nc3=O)[C@H](O)[C@@H]2O)cc1 |  | inactive: -3.14%
COC(=O)c1c(NC(=O)c2ccccc2)sc(C(=O)c2ccccc2)c1C | active: 14.6 µM | 
Cc1cccc(C)c1OCc1cc(C(=O)N2CC3C[C@@H]4CC2C[C@H](C3)C4)no1 | inconclusive [inhibitor, single point] | 
CC1CCCN(S(=O)(=O)c2ccc(NC(=O)C3CCN(C(=O)c4ccco4)CC3)cc2)C1 (stereo not given) | active: 13 µM | 
CC(C)COP(=O)(c1ccc(N(C)C)cc1)C(O)c1ccccc1 (stereo not given) | inconclusive [inhibitor, partial curve] | 
CCOc1ccc(OCC)c(NC(=O)C2CCN(S(=O)(=O)c3cccnc3)CC2)c1 |  | inactive: -8.32%
COC(=O)c1cc(Br)c(=O)n(Cc2ccc3c(c2)OCO3)c1 | inconclusive [inhibitor, single point] | 
CCN(c1ccccc1)S(=O)(=O)c1csc(C(N)=O)c1 |  | inactive: -28.9%
CC(=O)Nc1ccccc1/C=C/c1ccc2c(C)cc(C)c(O)c2n1 | active: 16.4 µM | 
O=C(NC1CCCCC1)c1ccc(-n2cnnn2)cc1 |  | inactive: 12.5%
Cc1cccc(N2CCN(C(=O)C3CCCN(C(=O)c4cc5sccc5n4C)C3)CC2)c1C (stereo not given) | active: 23.1 µM | 
CCOc1ccccc1N1CCN(C(=O)C(Sc2ccccc2)c2ccccc2)CC1 (stereo not given) | inconclusive [inhibitor, single point] | 
CCOc1ccc(CCNC(=O)Cn2ccc3cc(S(=O)(=O)N4CCCCCC4)ccc32)cc1 | active: 13 µM | 
CCC1CN(C(=O)C2CCN(S(=O)(=O)c3c(C)noc3/C=C/c3ccc(C)cc3)CC2)c2cc(C)ccc2O1 (stereo not given) |  | inactive: 0.997%
COc1cccc(N2CCN(S(=O)(=O)c3ccc4c(c3)NC(=O)CS4)CC2)c1 |  | inactive: -5.81%
COc1ccccc1-c1oc2ccccc2c1-c1ccc2cc[nH]c2c1 | inconclusive [inhibitor, partial curve, poor fit] | 
Cc1ccc(S(=O)(=O)N2CCN(CCOc3ccccc3)CC2)cc1 | inconclusive [inhibitor, single point] | 
COc1ccc(OCC(=O)Nc2ncc3c(n2)CC(C)(C)CC3=O)cc1 |  | inactive: -6.17%
CC(=O)Nc1sc2c(c1C(c1cccc(F)c1)N1CCN(CCO)CC1)CCCC2 (stereo not given) | inconclusive [inhibitor, single point] | 
CCN(CC)c1nc2c(c(=O)[nH]c(=O)n2C)n1Cc1ccccc1Cl | inconclusive [inhibitor, single point] | 
Cc1ccc(Cl)cc1NC(=O)N(C)CCO |  | inactive: -16.6%
Cc1ccc(NC(=O)COC(=O)c2ccnn2C)cc1 |  | inactive: -12.6%
COCCCNC(=O)C[C@H]1C[C@H](C(=O)N2CCCCC2)[C@@]2(C)c3[nH]c4ccc(Cl)cc4c3CCN2C1=O | active: 13 µM | 
O=c1c2c(C(F)(F)F)cc(C(F)(F)F)nc2[nH]n1-c1ccccc1 | inconclusive [inhibitor, single point] | 

Compound | Potency | activity change, negative = growth inhibition
COc1ccc(NC(=O)CN2CCN(c3ccccc3C)CC2)cc1 |  | inactive: -1.73%
COc1ccc(C(C)=NNC(=O)c2cccc(S(=O)(=O)N3CCCC3)c2)cc1 |  | inactive: -26.5%
Cc1ccc(C(=O)/C=C/Nc2ccc([N+](=O)[O-])cc2Br)cc1 | inconclusive [inhibitor, single point] | 
COc1ccc(C(CNC(=O)c2ccc(S(=O)(=O)N3CCCC3)cc2)N(C)C)cc1OC (stereo not given) |  | inactive: 1.83%
Cc1cccc(CNc2cc(-c3cccc(NS(C)(=O)=O)c3)ncn2)c1 | inconclusive [inhibitor, single point] | 
O=C(Cn1ccccc1=O)Nc1ccc(Cl)c(S(=O)(=O)N2CCCCC2)c1 | inconclusive [inhibitor, partial curve] | 
COc1cc(NC(=S)Nc2ccccn2)c(OC)cc1Cl | inconclusive [inhibitor, partial curve] | 
Cc1ccc(C(=O)NCc2ccccn2)cc1S(=O)(=O)N1CCCCC1 |  | inconclusive: -31.3% [inhibitor]
NC(c1csc(NC(=O)Nc2cccc(C(F)(F)F)c2)n1)C1CCCCC1 (stereo not given) | active: 20.6 µM | 
COCCn1c(SCC(=O)c2ccccc2)nc2c(c1=O)SCC2 | inconclusive [inhibitor, single point] | 
COc1ccc(NC(=O)C(=O)c2cc(C)n(-c3ccc(C)cc3)c2C)cc1Cl | active: 8.2 µM | 
Cn1c(CN2CCOCC2)nc2cc(NC(=O)COc3ccc([N+](=O)[O-])cc3)ccc21 | inconclusive [inhibitor, single point] | 
COc1ccc(OCc2nnc(NC(=O)Nc3ccccc3F)s2)cc1 | inconclusive [inhibitor, partial curve] | 
O=c1ccc(C(F)(F)F)cn1Cc1cc(=O)n2ccsc2n1 |  | inactive: 0.0887%
O=C(Cn1cnc2c(cnn2-c2ccc(F)cc2)c1=O)N1CCN(c2ccccc2)CC1 |  | inactive: -17.7%
O=C(NC1CC1)[C@@H]1C[C@H](Sc2nc3ccccc3[nH]2)CN1CC1CCCCC1 | inconclusive [inhibitor, single point] | 
O=C(ONC1=NCCCCC1)c1c(F)cccc1F | inconclusive [inhibitor, single point] | 
CC(NS(=O)(=O)c1ccc(Br)cc1F)[C@H](O)c1ccccc1 (stereo not given in full) | inconclusive [inhibitor, partial curve] | 
COc1ccccc1NC(=O)C1=C(C)Nc2nc(SCc3ccccc3)nn2C1c1cccs1 (stereo not given) | active: 14.6 µM | 
COC(=O)COc1c(Cl)cc(C(c2c(C)[nH][nH]c2=O)c2c(C)[nH][nH]c2=O)cc1OC |  | inactive: -33.9%
CN1CCN(C(=S)Nc2ccc(Cl)cc2Cl)CC1 |  | inconclusive: -34.6% [inhibitor]
CN(CCOc1ccccc1)S(=O)(=O)c1ccc2oc3ccccc3c2c1 | active: 23.1 µM | 
Cc1noc(C)c1CSCC(=O)N(CC(C)C)c1c(N)n(Cc2ccccc2)c(=O)[nH]c1=O |  | inactive: -4.27%
CC(=O)c1ccc(NC(=O)c2nn(C)c3c2COc2ccccc2-3)cc1 | inconclusive [inhibitor, partial curve] | 
CC(C)CC(=O)NC(=S)Nc1ccc(F)cc1F | inconclusive [inhibitor, full curve, poor fit] | 

Compound | Potency | activity change, negative = growth inhibition
O=S(=O)(c1ccccc1)c1nc(-c2ccccc2)oc1NCCCN1CCOCC1 |  | inactive: -16.3%
CC(=O)c1cccc(NC(=O)c2ccc(N(Cc3ccccc3C)S(C)(=O)=O)cc2)c1 | inconclusive [inhibitor, partial curve, poor fit] | 
Cc1nc2cc(Cl)ccc2n1-c1ccccc1 |  | inactive: -12%
Cc1ccccc1CNC(=O)C(=O)NCC1OCCCN1S(=O)(=O)c1ccc(F)cc1C (stereo not given) | inconclusive [inhibitor, full curve, poor fit] | 
CCN(CC)S(=O)(=O)c1ccc(Cl)c(NC(=O)COC(=O)/C=C/c2ccc(O)c(OC)c2)c1 | inconclusive [inhibitor, single point] | 
CCCCCCCCSc1nnc2[nH]c(=O)cc(N)n12 | inconclusive [inhibitor, single point] | 
COc1ccccc1/C=C/C=N/n1c(C2CCCCC2)n[nH]c1=S | active: 16.4 µM | 
O=Cc1ccnc2ccccc12 |  | inactive: -91.7%
Cc1sc2ncnc(N3CCC(C)CC3)c2c1C | inconclusive [inhibitor, single point] | 
COc1ccccc1N=Nc1[nH]c2ccc(C)cc2c1O | inconclusive [inhibitor, single point] | 
Cc1cnc(C(=O)OCC(=O)NC(C)C)cn1 |  | inactive: -5.05%
COc1ccc(-c2csc(Nc3ccccc3)n2)cc1 | inconclusive [inhibitor, partial curve] | 
O=C(Nc1ccc2cn[nH]c2c1)c1c(Cl)cccc1Cl | inconclusive [inhibitor, partial curve] | 
N#C/C(=N\Nc1ccccc1F)C(=N)N1CCCCC1 | inconclusive [inhibitor, single point] | 
COc1ccc(CC2(CO)CCN(Cc3ccc(OC(F)(F)F)cc3)CC2)cc1 | active: 18.4 µM | 
CCc1cc2c(-c3ccccc3)cc(=O)oc2c2c1OCN(Cc1ccc(C)cc1)C2 | inconclusive [inhibitor, single point] | 
CCOC(=O)c1c(NC(=O)c2cc(-c3ccc(Br)cc3)on2)sc(C)c1C |  | inactive: 2.43%
CCN(c1ccccc1)S(=O)(=O)c1ccc(Cl)c(NC(=O)CN2CCCCCC2)c1 | active: 18.4 µM | 
Cc1c(C(=O)N2CC3CCC2C3)sc2ncnc(NCCc3c[nH]c4ccccc34)c12 (stereo not given) | active: 23.1 µM | 
Cc1nn(Cc2ccc(Br)cc2)c(C)c1NC(=O)c1nn(C)cc1Cl | active: 18.4 µM | 
COc1cccc(C2=CC(=O)C(C(C)(C)C)N2C(C)(C)C)c1 (stereo not given) | active: 20.6 µM | 
CCOc1ccc(Nc2nc(Cc3nnc(SCC(=O)NC4CCCC4)n3C)cs2)cc1 |  | inactive: -12.6%
CCn1cc(/C=N\NC(=O)c2ccc3c(c2)c(C)c(C)n3Cc2ccccc2)c(C)n1 | active: 16.4 µM | 
CCOC(=O)COc1ccccc1/C=N\NC(=O)c1cc2c(ccc3ccccc32)o1 | inconclusive [inhibitor, single point] | 
COc1ccc(N(C(=O)c2ccc(Br)o2)C2C=CS(=O)(=O)C2)cc1 (stereo not given) | active: 13 µM | 
